Source: the RNAGym collection of RNA variant scans (doi:10.7554/elife.90254)
Read counts are not given, so values of variants with three or more changes are uncertain.

B1: OR4K15 (parent)
chain: GUUAACGGUCAUAGGCCAUGGAAACUAGGAGCACCAUUUCGCUGCCAGUGAAGAAAUGAACAAAGAAAAUCUGGGCCAGGCAGGCAUCAAAAGAAAUAGUCUUGCGCUCAACCAGAAAGUCUGUAAUCAUUUUAAGGGUA

Variants of: B1
Assay: self-cleavage, relative activity (ratio to wild type); higher = more cleavage; in vitro, sequencing; the parent is a self-cleaving ribozyme

Variant | self-cleavage
A11U A18U G44A U57C | 1.47
A13U U72C A129G | 0.19
A11G U87C G106A A118U | 0.04
A13G A92G A117G | 1.15
U12C A23G U37C U122C | 1.26
A13U U124C G138U | 1.04
A13G A59G A117C | 0.75
U12C A54C A92G | 0.81
A13C A36G A47G A67G | 0.55
A11U U12C U108A | 0.12
A11U C81U U108C A134U | 0.02
G14A A22G A30G A66G A110G | 0.12
U12C A30G A55G A92G U108C | 0.07
A11U U39A A52U A60G U103C C105U U108C U120A U131C | 0
U12C A52G U57A A78G A126U U132C | 0.24
A13G A23G A51G U57C | 0.49
U12C A92G A114G U131C | 0.28
A11U A52G A117G | 1.19
A13G A60G U130G | 0.84
U12C A90G U102A A129G | 0.13
U12A U39C U43C A54U A92G | 1.86
A13C A27U A114G | 1.08
U12C U37A A56G A62G | 0.61
A11U U19G A52G A111G | 0.06

Variant | self-cleavage
U12C A78G C128U | 0.34
U12C A22G A90G | 1.07
U12C U37C A54G A116G U120C U122C | 0.1
U12C A110G U132C | 0.23
A13G C16G U49A C107U U108C | 0.13
A13G A27G A63G | 1.11
A13G A56G U57C C71A A111G | 0.02
U12C U43C A92G | 0.98
A13G A18G A30G | 0.91
A13U A47U A86C U108C U127A | 0
A13G A63G U102C | 0.8
A11G U87C U127C | 0.12
U12A A13G U39C A62G A63G U139C | 1.15
U12A U19C A96G | 1.45
U12C U102C A110G U127G | 0.09
U12C G15U A82U U124C | 0.1
U12C A13G A33G A66G U103C A116G A135G | 0.09
G14A A89G A96G G137A | 0.5
A13U A52G A95G U139C | 1.45
U12C G14A A30G U103C U133C | 1.37
U12C U19C A30G A69G A111G | 0.09
A13G U19C A56G | 0.17
U12C G48A A118G | 0.77
A13G A22C U39C C77U A110U A129G | 1.28

Variant | self-cleavage
U12A A30G A95G U127A | 2.61
U12C A82U U102A U132C A135G | 0.17
A11U A24G U49G U87C | 1.11
A11G U103C A111G | 0.01
A11U A56G G99A | 0.96
U12C A54G A117G | 1.47
U12C U43A A111U U130C | 0.03
U12C A92G A135G | 1.65
A13G A64G U70C A126G | 0.65
U12C A90G U132C | 1.71
U12C U38C A69G U102C | 1.44
A13U U37C U43A A60G A66G C85A U87C | 2.04
A13U A63G U72C U102A A111U | 0.02
A13U G83A A117U | 0.96
A13G A30G U100C G115A | 0.99
U12C U26C A62G C85A | 0.55
A13G A66G U139C | 2.23
A11U A82U A96G | 0.23
A13U A22G A64G U72A | 0.11
U12A G31U A47G A52G U57A G74U U100G | 0.39
A13G A90G A110G | 0.06
A13U U37C A78G | 0.21
A11U U26C A64G A111G U132G | 0.01
A13G A24C A47G | 1.08

Variant | self-cleavage
G14A A33G U131C | 0.27
A13G U103C U124A | 0.42
U12C U39C A52G | 2.1
U12C U38C A55G G83C | 0.25
A13G A23G U100C | 1.29
A11U C42A A59G A129G | 0.6
A13G U108C U132C | 0.03
U12A A22G A52G A59G U70C | 0.62
U12A A23G U37C A47U U132C | 0.29
U12C U38C U72C U97C | 0.46
U12C U43C A66U U72C A94U A116U | 0.01
A11U U39C U43A A94G | 1.27
U12C A59U U132C | 2.21
A11G U100C U131A A135G | 1.69
U12C A52G G84A | 1.31
U12A A36C C46U A82G U102C | 1.21
U12C A30G U127C | 1.11
U12A A54G A78G | 0.36
A11G U131C A140C | 0.97
G14A A33G U70C A90G U102C | 0.44
A11U A22G A117G | 1.73
A11U U72C U131A | 0.22
U12C A51G A94G | 1.3
A13G A60G A91G | 0.52

Variant | self-cleavage
A13U U43C A96G U124A | 0.62
U12C A59U U108C A129G | 0.02
U12C A24G A52G A55G A59U A91G A92G U122C | 0.75
U12C A62G A66G A114U A134G | 0.12
U12A A86U U108A | 0.01
U12C U100G U132C | 1.28
U12C U43G U108G | 0.07
A11U U43C A55G | 1.52
U12C G75A A82U | 0.13
A13U A23G U133C A140U | 0.25
A13G A24G U108G U133C | 0.05
A11U A60G A92G U103C C112U | 0.01
A13G A64G A67G A69G | 1.37
U12C A64G A66G | 1.71
U12C A23U U37C A126G A140U | 0.72
A13C U43C U49C U87C | 1.09
A13G A59G U103C A140G | 1.09
A11U U37C A78U U108C | 0
A13G A24G A47U A62G | 1.25
A13U A18G G31U U70C A95G | 1.32
G14A A59G A62G A92G A134G | 0.96
A11U A18U A47U A82U C85U U87C A90G U97C C113U | 0.01
A13U U43A A82G A90G A110G | 0.03
U12A A55G A96G | 2.12

Variant | self-cleavage
U12G A13G U57C | 1.02
A11U A52G A64G | 2.02
A13U U49G A68G U122G A126G | 1.08
A13G C46U A111G A140G | 0.06
U12C C88A A96G U103A | 0.5
U12A A117U U120G | 1.18
A11U A23G A92G U122A U132C | 0.59
A11U A51G A66G | 1.42
A13U A54U A91G U103C | 0.08
G14A A24G A62G C81A U100C A135U | 0.21
U12C U26C A92G U122C U139A | 0.8
U12C A13G U19C | 1.07
U12C A52G U100C | 2.5
A13G U39C C71U U132G | 0.07
A13G A59G A67G G84A | 1.02
U12C A62C A110G A140U | 0.15
A11U A56G A116U U139A | 0.32
A13G G14A U108A U130C | 0.02
A13G A63G A111G U130G U133A | 0.06
U12C A30G A52U | 0.87
U12C A60G A86G A90G A125G | 0.13
A13G U87C A125G | 0.61
A11U A82C A114G | 0.06
A11U A24C U49C A52G U103C | 0.87

Variant | self-cleavage
A11U G15A U49C A56G U108A G115U | 0.02
U12A A54U U100C | 1.66
U12C A52G A118U A129U | 0.61
A13U A30G A82G A89G A90G A95G A110G | 0.16
U12C A13G U38C A60U | 1.33
A13U A110G A117G | 0.24
U12C A51G U72C U120C | 0.17
A11U C16U U43C A63G U127A | 1.23
U12C A23G C42U A66G G83U A94U | 0.45
A11U U72C U139A | 0.08
U12C U19C G44A U108C C113A | 0.01
A13G A64U A86G U97C U102C | 1.4
A11U U49C A111C | 0.01
A13U A24U C71U | 0.15
A13U A22G A68G U133C | 2
U12A A68U A92U U132C | 1.3
A13G A52G U102C A110G | 0.18
U12A A92G C128U | 0.85
A13U A59U A82G | 0.71
U12C U19C A78U | 0.14
U12C U102C U122C U127C | 1.6
U12G A67G U70C A110U | 1.21
A13G A18U A117G U124C | 1.21
